From US7592316B2, “Peptides as NS3-serine protease inhibitors of hepatitis C virus” (Schering Corporation, priority 2000, dated 2009)

What follows are compounds tested against HCV NS3/NS4A protease (strain 1a) (Hepatitis C virus genotype 1a, UniProt P27958) (assay: biochemical). Settings: Table 6; HCV NS3/NS4A protease, 30° C., pH 6.5; read-out: Ki*.

Compound | Ki
CC(C)(C)OC(=O)N[C@H](C(=O)N1C[C@H]2[C@@H]([C@H]1C(=O)NC(CC1CCC1)C(=O)C(=O)NCC(=O)OCc1ccccc1)C2(C)C)C1CCCCC1 (stereo partly shown) | 1 to 100 nM
CC(C)(C)OC(=O)N[C@H](C(=O)N1CC2C([C@H]1C(=O)NC(CC1CCC1)C(=O)C(=O)NCC(=O)NCc1ccccc1)C2(C)C)C1CCCCC1 (stereo partly shown) | 101 to 1000 nM
C#CCCNC(=O)C(=O)C(CCC=C)NC(=O)[C@@H]1[C@@H]2[C@H](CN1C(=O)[C@@H](NC(=O)OC(C)(C)C)C1CCCCC1)C2(C)C (stereo partly shown) | 1 to 100 nM
C#CCCNC(=O)C(=O)C(CCC=C)NC(=O)[C@@H]1[C@@H]2[C@H](CN1C(=O)[C@@H](NC(=O)NC(C)(C)C)C1CCCCC1)C2(C)C (stereo partly shown) | 1 to 100 nM
C=CCCNC(=O)C(=O)C(CCC=C)NC(=O)[C@@H]1[C@@H]2[C@H](CN1C(=O)[C@@H](NC(=O)NC(C)(C)C)C1CCCCC1)C2(C)C (stereo partly shown) | 1 to 100 nM
C=CCNC(=O)C(=O)C(CCC)NC(=O)[C@@H]1[C@@H]2[C@H](CN1C(=O)C(NC(=O)OC(C)(C)C(F)(F)F)C1CCCCC1)C2(C)C (stereo partly shown) | 101 to 1000 nM
CCCC(NC(=O)[C@@H]1[C@@H]2[C@H](CN1C(=O)[C@@H](NC(=O)NC(C)(C)C)C1CCCCC1)C2(C)C)C(=O)C(=O)NCC(=O)CC(C)C (stereo partly shown) | 101 to 1000 nM
C=CCCC(NC(=O)[C@@H]1[C@@H]2[C@H](CN1C(=O)C(NC(=O)OC(C)(C)C)C1CCCCC1)C2(C)C)C(=O)C(=O)NCCN(CC)CC (stereo partly shown) | > 1000 nM
CC(C)(C)OC(=O)N[C@H](C(=O)N1C[C@H]2[C@@H]([C@H]1C(=O)NC(CC1CC1)C(=O)C(=O)NCC(=O)NCc1ccccc1)C2(C)C)C1CCCC1 (stereo partly shown) | 1 to 100 nM
C=CCCC(NC(=O)[C@@H]1[C@@H]2[C@H](CN1C(=O)C(NC(=O)OC(C)(C)C)C1CCCCC1)C2(C)C)C(=O)C(=O)NCCC(=O)NCCN(CC)CC (stereo partly shown) | > 1000 nM
CN(C)C(=O)C(NC(=O)CNC(=O)C(=O)C(CC1CC1)NC(=O)[C@@H]1[C@@H]2[C@H](CN1C(=O)[C@@H](NC(=O)OC(C)(C)C)C(C)(C)C)C2(Cl)Cl)c1ccccc1 (stereo partly shown) | 1 to 100 nM
CN(Cc1ccccc1)C(=O)CNC(=O)C(=O)C(CC1CC1)NC(=O)[C@@H]1[C@@H]2[C@H](CN1C(=O)[C@@H](NC(=O)OC(C)(C)C)C(C)(C)C)C2(C)C (stereo partly shown) | > 1000 nM
C=CCNC(=O)C(=O)C(CCC(F)(F)F)NC(=O)[C@@H]1[C@@H]2[C@H](CN1C(=O)[C@@H](NC(=O)OC(C)(C)C)C1Cc3ccccc3C1)C2(C)C (stereo partly shown) | 1 to 100 nM
CC(C)(C)NC(=O)N[C@H](C(=O)N1C[C@H]2[C@@H]([C@H]1C(=O)NC(CC1CCC1)C(=O)C(=O)NCCS(=O)(=O)NCC1CC1)C2(C)C)C(C)(C)C (stereo partly shown) | 101 to 1000 nM
CN(C(C)(C)C)S(=O)(=O)CCNC(=O)C(=O)C(CC1CCC1)NC(=O)[C@@H]1[C@@H]2[C@H](CN1C(=O)[C@@H](NC(=O)NC(C)(C)C)C(C)(C)C)C2(C)C (stereo partly shown) | > 1000 nM
CC(C)C(=O)[C@@H](NC(=O)CNC(=O)C(=O)C(CC1CCC1)NC(=O)[C@@H]1[C@@H]2[C@H](CN1C(=O)[C@@H](NC(=O)NC(C)(C)C)C1CCCCC1)C2(Cl)Cl)c1ccccc1 (stereo partly shown) | 1 to 100 nM
C=CCNC(=O)C(=O)C(CC1CC1)NC(=O)[C@@H]1[C@@H]2[C@H](CN1C(=O)[C@@H](NC(=O)OC(C)(C)C)C1Cc3ccccc3C1)C2(C)C (stereo partly shown) | 101 to 1000 nM
CCCC(NC(=O)[C@@H]1[C@@H]2[C@H](CN1C(=O)[C@@H](NC(=O)OC(C)(C)C)C1CCCCC1)C2(C)C)C(=O)C(=O)NCC(=O)NCCC(=O)N(C)C (stereo partly shown) | 1 to 100 nM
CN(C)C(=O)C[C@@H](NC(=O)CNC(=O)C(=O)[C@H](CC1CCC1)NC(=O)[C@@H]1[C@H]2OC(C)(C)O[C@H]2CN1C(=O)[C@@H](NC(=O)OC(C)(C)C)C1CCCCC1)c1ccccc1 | 1 to 100 nM
C=CCNC(=O)C(=O)C(CCCC(F)(F)F)NC(=O)[C@@H]1[C@@H]2[C@H](CN1C(=O)[C@@H](NC(=O)OC(C)(C)C)C1CCCCC1)C2(C)C (stereo partly shown) | 101 to 1000 nM
CCCC(NC(=O)[C@@H]1[C@@H]2[C@H](CN1C(=O)[C@@H](NC(=O)NC(C)(C)C)C1CCCCC1)C2(C)C)C(=O)C(=O)NCCS(=O)(=O)Cc1ccccc1 (stereo partly shown) | 1 to 100 nM
CNC(=O)C(=O)C(CC1CC1)NC(=O)[C@@H]1[C@@H]2[C@H](CN1C(=O)[C@@H](NC(=O)NC(C)(C)C)C1Cc3ccccc3C1)C2(C)C (stereo partly shown) | 101 to 1000 nM
CNC(=O)C(=O)C(CCC(F)(F)F)NC(=O)[C@@H]1[C@@H]2[C@H](CN1C(=O)[C@@H](NC(=O)OC(C)(C)C)C1Cc3ccccc3C1)C2(C)C (stereo partly shown) | 101 to 1000 nM
CC(C)(C)OC(=O)N[C@H](C(=O)N1C[C@H]2[C@@H]([C@H]1C(=O)NC(CC1CC1)C(=O)C(=O)NCC(=O)NCc1ccccc1)C2(Cl)Cl)C1CCCCC1 (stereo partly shown) | 1 to 100 nM
C=CCCC(NC(=O)[C@@H]1[C@@H]2[C@H](CN1C(=O)[C@@H](NC(=O)NC(C)(C)C)C1CCCCC1)C2(C)C)C(=O)C(=O)NCCC(=O)N(C)CCc1ccccc1 (stereo partly shown) | 1 to 100 nM
CC(C)(C)NC(=O)N[C@H](C(=O)N1C[C@H]2[C@@H]([C@H]1C(=O)NC(CC1CC1)C(=O)C(=O)NCC(=O)OC(C)(C)c1ccccc1)C2(Cl)Cl)C1CCCCC1 (stereo partly shown) | 1 to 100 nM
C=CCCC(NC(=O)[C@@H]1[C@H]2C(CC)[C@H]2CN1C(=O)[C@@H](NC(=O)OC(C)(C)C)C(C)(C)C)C(=O)C(=O)NCCC(=O)N(C)Cc1ccccc1 (stereo partly shown) | 101 to 1000 nM
C=CCCC(NC(=O)[C@@H]1[C@@H]2[C@H](CN1C(=O)[C@@H](NC(=O)OC(C)(C)C)C(C)(C)C)C2(C)C)C(=O)C(=O)NCCC(=O)N(C)Cc1ccccc1 (stereo partly shown) | 101 to 1000 nM

Compound | Ki
CNC(=O)C(=O)C(CC1CC1)NC(=O)[C@@H]1[C@@H]2[C@H](CN1C(=O)[C@@H](NC(=O)OC(C)C(C)C)C1Cc3ccccc3C1)C2(C)C (stereo partly shown) | 1 to 100 nM
CNC(=O)C(=O)C(CC1CC1)NC(=O)[C@@H]1[C@@H]2[C@H](CN1C(=O)[C@@H](NC(=O)OC(C)(C)C(F)(F)F)C1Cc3ccccc3C1)C2(C)C (stereo partly shown) | 1 to 100 nM
CC(C)(C)[C@H](NC(=O)OC(C)(C)C(F)(F)F)C(=O)N1C[C@H]2[C@@H]([C@H]1C(=O)NC(CC1CC1)C(=O)C(N)=O)C2(Cl)Cl (stereo partly shown) | 1 to 100 nM
Cc1ccc(S(=O)(=O)CNC(=O)C(=O)C(CC2CC2)NC(=O)[C@@H]2[C@@H]3[C@H](CN2C(=O)[C@@H](NC(=O)NC(C)(C)C)C(C)(C)C)C3(C)C)cc1 (stereo partly shown) | 1 to 100 nM
CN(C)C(=O)[C@@H](NC(=O)CNC(=O)C(=O)[C@@H](CC1CCC1)NC(=O)[C@@H]1[C@H]2OC(C)(C)O[C@H]2CN1C(=O)[C@@H](NC(=O)NC(C)(C)C)C(C)(C)C)c1ccccc1 | 101 to 1000 nM
CN(C)C(=O)[C@@H](NC(=O)CNC(=O)C(=O)[C@H](CC1CCC1)NC(=O)[C@@H]1[C@H]2OC(C)(C)O[C@H]2CN1C(=O)[C@@H](NC(=O)NC(C)(C)C)C(C)(C)C)c1ccccc1 | 1 to 100 nM
CC(C)(C)NC(=O)N[C@H](C(=O)N1C[C@@H]2OC(C)(C)O[C@@H]2[C@H]1C(=O)NC(CC1CCC1)C(=O)C(N)=O)C(C)(C)C (stereo partly shown) | 101 to 1000 nM
Cc1ccc(S(=O)(=O)CNC(=O)C(=O)C(CC2CC2)NC(=O)[C@@H]2[C@@H]3[C@H](CN2C(=O)[C@@H](NC(=O)OC(C)(C)C)C(C)(C)C)C3(C)C)cc1 (stereo partly shown) | 101 to 1000 nM
CCCCC(NC(=O)[C@@H]1[C@@H]2[C@H](CN1C(=O)[C@@H](NC(=O)NC(C)(C)C)C1CCCCC1)C2(C)C)C(=O)C(=O)NCC(=O)OC(C)(C)c1ccccc1 (stereo partly shown) | 1 to 100 nM
CCCCC(NC(=O)[C@@H]1[C@@H]2[C@H](CN1C(=O)[C@@H](NC(=O)NC(C)(C)C)C(C)(C)C)C2(C)C)C(=O)C(=O)NCC(=O)OC(C)(C)c1ccccc1 (stereo partly shown) | 101 to 1000 nM
CCCCC(NC(=O)[C@@H]1[C@@H]2[C@H](CN1C(=O)[C@@H](NC(=O)NC(C)(C)C)C(C)(C)C)C2(C)C)C(=O)C(=O)NCCS(=O)(=O)N(C)C (stereo partly shown) | 101 to 1000 nM
C=CCCC(NC(=O)[C@@H]1[C@H]2C(CC)[C@H]2CN1C(=O)[C@@H](NC(=O)NC(C)(C)C)C(C)(C)C)C(=O)C(=O)NCCC(=O)N(C)Cc1ccccc1 (stereo partly shown) | 101 to 1000 nM
CC(C)(C)NC(=O)N[C@H](C(=O)N1C[C@H]2[C@@H]([C@H]1C(=O)NC(CC1CC1)C(=O)C(=O)NCC(=O)OC(C)(C)c1ccccc1)C2(Cl)Cl)C(C)(C)C (stereo partly shown) | 1 to 100 nM
CC(C)(C)OC(=O)N[C@H](C(=O)N1C[C@H]2[C@@H]([C@H]1C(=O)NC(CC1CCC1)C(=O)C(=O)NCC(=O)OC(C)(C)c1ccccc1)C2(Cl)Cl)C(C)(C)C (stereo partly shown) | 101 to 1000 nM
C=CCCC(NC(=O)[C@@H]1[C@@H]2[C@H](CN1C(=O)[C@@H](NC(=O)NC(C)(C)C)C(C)(C)C)C2(C)C)C(=O)C(=O)NCC(=O)C(=O)OC(C)(C)C (stereo partly shown) | 101 to 1000 nM
Cc1ccc(S(=O)(=O)CNC(=O)C(=O)C(CC2CC2)NC(=O)[C@@H]2[C@@H]3[C@H](CN2C(=O)[C@@H](NC(=O)OC(C)(C)C)C2CCCCC2)C3(C)C)cc1 (stereo partly shown) | 1 to 100 nM
CC(C)(C)[C@H](NC(=O)OC(C)(C)C(F)(F)F)C(=O)N1C[C@H]2[C@@H]([C@H]1C(=O)NC(CC1CCC1)C(=O)C(N)=O)C2(C)C (stereo partly shown) | 101 to 1000 nM
CC1(C)[C@@H]2[C@@H](C(=O)NC(CC3CCC3)C(=O)C(N)=O)N(C(=O)[C@@H](NC(=O)OC(C)(C)C(F)(F)F)C3CCCCC3)C[C@@H]21 (stereo partly shown) | 1 to 100 nM
Cc1ccc(S(=O)(=O)CNC(=O)C(=O)C(CC2CC2)NC(=O)[C@@H]2[C@@H]3[C@H](CN2C(=O)[C@@H](NC(=O)NC(C)(C)C)C2CCCCC2)C3(C)C)cc1 (stereo partly shown) | 101 to 1000 nM
CC(C)(C)NC(=O)N[C@H](C(=O)N1C[C@H]2[C@@H]([C@H]1C(=O)NC(CC1CCC1)C(=O)C(=O)NCCC(=O)OC(C)(C)c1ccccc1)C2(Cl)Cl)C1CCCCC1 (stereo partly shown) | 101 to 1000 nM
CCCC(NC(=O)[C@@H]1[C@@H]2[C@H](CN1C(=O)[C@@H](NC(=O)NC(C)(C)C)C(C)(C)C)C2(C)C)C(=O)C(=O)N[C@@H](C)CC(=O)OC(C)(C)C (stereo partly shown) | 1 to 100 nM
C#CCCC(NC(=O)[C@@H]1[C@@H]2[C@H](CN1C(=O)[C@@H](NC(=O)OC(C)(C)C)C1CCCCC1)C2(C)C)C(=O)C(=O)NCCC(=O)N(C)Cc1ccccc1 (stereo partly shown) | 1 to 100 nM
CC(C)(C)OC(=O)N[C@H](C(=O)N1C[C@H]2[C@@H]([C@H]1C(=O)NC(CCC(F)(F)F)C(=O)C(N)=O)C2(C)C)C1Cc2ccccc2C1 (stereo partly shown) | 1 to 100 nM
C=CCNC(=O)C(=O)C(CCC(F)(F)F)NC(=O)[C@@H]1[C@@H]2[C@H](CN1C(=O)[C@@H](NC(=O)NC(C)(C)C)C1Cc3ccccc3C1)C2(C)C (stereo partly shown) | 1 to 100 nM
CCCC(NC(=O)[C@@H]1[C@@H]2[C@H](CN1C(=O)[C@@H](NC(=O)NC(C)(C)C)C(C)(C)C)C2(C)C)C(=O)C(=O)NCCC(O)Cc1ccccc1 (stereo partly shown) | 101 to 1000 nM
CCCC(NC(=O)[C@@H]1[C@@H]2[C@H](CN1C(=O)[C@@H](NC(=O)NC(C)(C)C)C(C)(C)C)C2(C)C)C(=O)C(=O)NCC(O)COc1ccccc1 (stereo partly shown) | 101 to 1000 nM
CC(C)(C)OC(=O)N[C@H](C(=O)N1C[C@H]2[C@@H]([C@H]1C(=O)NC(CC1CCC1)C(=O)C(N)=O)C2(C)C)C1(C)CCCCC1 (stereo partly shown) | 101 to 1000 nM
